# Source: the domain aggregation screens of Martell et al. (2025)
# Test: soluble fraction after stress (log2 fold change); higher = more stays soluble; pooled small domains, quantitative proteomics
# Details: stress: 50 degC
# Procedure, shortened: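 After stress at 50°C, the amount of each protein still soluble was measured. This was done on pooled custom libraries of small protein domains, using high-throughput quantitative proteomics. The figure given is a base-two log fold change and stands for aggregation propensity, with higher values meaning more protein stays in solution.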
row,Sequence,soluble fraction (log2)
1,HMTEEDLIEAFKIFDKDGNGVISAQELRHVMTTLGERLTEEEADEMIREADIDGDGYINYHEFVRIMM,0.0204
2,HMRRLQTVVFQKGLATTIRQARQLINHGHIFVDGHKVTVPGYLVLREEEGSVAYNPASPFTDENHPM,-2.04
